# The source gives no read counts; variants with many changes may rest on few reads.
# B1: LINE1-full (parent)
# chain: UACGUAGGUGGUUUUCCCCUGAUAGUGCUAAGGGGGCCUGGAAGUUUGGACUGGGCAGAGCUCAACACAGCGUGGCAAAGUGGCUGUGGCUAGACUGCCUCUCUGGAUUCCUCGUCACUCAGCAGGGCAUCUCUGAGAGAAAUGCC
# Variants of: B1
# Assay: self-cleavage, relative activity (ratio to wild type); higher = more cleavage; in vitro, sequencing; the parent is a self-cleaving ribozyme
row,Variant,self-cleavage
1,UACGUAGGUGGUUUUCCCCAGAUAGUGCUAAGGGGGCCUGGAAGUUUGGACUGGGCAGAGCUCAGCACAGCGUGGCAAAGUGGCUGUGGCUAGACUGCCUCUCUGGAUUCCUCGUCACCCAGCAGGGCAUCUCUGAGAGAAAUGCC,0.23
2,UACGUAGGUGAUCUUCCCCUGAUAGUGCUAGGGGGGCCUGGAAGUUCGGACUGGGCAGAGCUCAACACAGCGUGGCAAAGUGGCUGUGGCUAGACUGCCUCUCUGGAUUCCUCGUCACUUAGCAGGGCAUCUCUGAGAGAAAUGCC,0.73
3,UACGUAGGUGGUUUUCCCCUGAUAGUGCUAAGGGGGCCAGGAGGUUUUGACUGGGCAGAGCUCAACACAGCGUGGCAAUGUGGCUGUGGCUAGACUGCCUCUCUGGAUUCCUCGUCACUCAGCAGGGCAUCUCUGAGAGAAAUGCC,0.81
4,UACGUAGGUGGUUUUCCCCUGAUAGUGCUAAGGGGGCCUGGAAGUUUGGACUGGGCAGAGCUCAACGCAGCGUGGCAAAGUGGCUGUGGCUAGACUGCCACUCUGGAUUCCUCGUCACUCAGCAGGGCAUCUCUGAGAGGGAUGCC,0.23
5,UACGUAGGUGGUUUUCCCCUGAUAGUGCCAAGGGGGCCUGGAAGUUUGGACUGGGCAGAGCUCAACACAGCGUGGCAAAGUGGCUGUGGCUAGACUGCCUCUCUGGAUUCCUCGUCACUCAGCGGGGCAUCUCUGGGAGAAAUGCC,1.31
6,UACGUAGGUGGUUUUCCCCUGAUAGUGCUAGGGGGGCCUGGAAGUUUGGACUGGGCAGAGCUCAACACAGCGUGGCAAAGUGGCUGUGGCUAGACUGCCUCUCUGGAUUCCCCGUCACUCAGCAGGGCAUCUCUGAGAGGAAUGCC,0.49
7,UACGUAGGUGGUUUUCCCCUGAUGGCGCUAAGGAAGCCUGGAAGUUUGGACUGGGCUGAGCUCAGCACAGCGUGGCAAAGAGGCUGUGGCUAGACUGCCCCUCUGGAUUCCUCGUCACUCAGCAGGGCAUCUCUGAGAGAAAUGCC,0.45
8,UACGUAGGUGGUCUUCCCCUGAUAGUGCUAAGGGGGCCUGGGAGUUUGGACUGGGCAGAGCUCAACACAGCGUGGCAAAGUGGCUGUGGCUAGACUGCCUCUCUGGAUUCCUCGUCACUCAGCAGGGCAUCUCUGAGAGAGAUGCC,1.47
9,UACGUAGGUGGCUUUCCCCUGAUAGCGCUAAGGGGGCCAGGAAGUUUGGACUGGGCAGAGCUCAACACAGCGUGGCAAAGUGGCUGGGGCUAGACUGCCUCUCUGGAUUCCUCGUCACUCAGCAGGGCAUCUCUGAGAGAAAUGCC,0.47
10,UACGUAGGUGGUUUUCCCCUGAUGGUGCUAAGGGGGCCUGGAAGUUUGGACUGGGCAGGGCUCAACACAGCGUGGCAUAGUGGCUGUGACUAGACUGCCUCUCUGGAUUCCUCGUCACUCAGCAGGGCAUCUCUGAGAGAAAUGCC,0.05
11,UACGUAGGUGGUUUUCCCCUGAUAGUGCUAAGGGGGCCUGGGAGUCUGGACUGGGCAGAGCUCAACACAGCGUGGCAAAGUGGCUGUGGCUAGAUUGCCUCUCUGGAUUCCUCGUCACUCAGCAGGGCAUCUCUGAGAGAAAUGCC,0.72
12,UACGUAGGUGGUUUUCCCCUGAUAGUGCUAAGGGGGCCUGGAGGUCUGGACUGGGCAGAGCUCAACACAGCGUGGCGAAGUGGCUGUGGCUAGACUGCCUCUCUGGUUUCCUCGUCACUCAGCAGGGUAUCUCUGAGAGAAAUGCC,1.71
13,UACGUAGGUGGUUUUCCCCUGAUAGUGCUAAGGGGGCCUGGAAGUUUGGACUGGGCAGAGCUCCACACAGCGUGGCAGAGUGGCUGUGGCAAGACUGCCUCUCUGGAUUCCUCGUCACUCAGCAGGGCAUCUCUGGGAGAAAUGCC,0.04
14,UACGUAGGUGGUUUUCCCCUGAUAGUGCUAAGGGGGCCUGGAAGUUUGGAUUGGGCAGAGCUCAACUCAGCGUGGCAGAGUGGCUGCGGCUAGACUGCCACUCUGGACUCCUCGUCACUCAGCAGGGCAUCUCUGAGAGAAAUGCC,0.26
15,UACGUGGGUGGUUUUCCCCUGAUAGUGCUAAGGGGGCCUGGAAGUUUGGACUGGGCAGAGCUCAACACAGCGUGGCAAAGUGGCUGUGGCUAGACUGCCUCUCUGGAUACCUCGCCACUCAGCAGUGCAUCUCUGAGAGAAAUGCC,1.16
16,UACGUAGGUGGUUUUCCCCUGAUAGUGCUAAGGGGGCCUGGAAGUUUGGACUGGGCAGAGCUCAACACAGCGUGGCAAAGUGGCUGUGGCUAGACUGCCUCUCUGGAUUCCUCGUCACUCAGCAGGGCAUCCCUGAGAGGAAAGCC,0.94
17,UACGUGGGUGGUCUUCCCCUGAUAGUGCUAAGGGGGCCUGGAUGUUUGGACUGGGCAGAGCUCAACACAGCGUGGCUAAGUGGCUGUGGCUAGACUGCCUCUCUGGAUUCCUCGUCACUCAGCAGGGCAUCUCUGAGAGAAAUGCC,0.28
18,UACGUAGGUGGUUUUCCCCUGAUAGUGCUAAGGGGGCCUGGAAGUUUGGACUGGGCUGAGCUCAACACAGCGUGGCAAAGUGGCUGUGGCUAGACAGCCUCUCUGGAUUCCUCGCCUCUCAGCAGGGCAUCUCUGAGAGAAAUGCC,0.68
19,UACGUAGGUGGUUUUCCCCUGAUAGUGCUGAGGGGGCCUGGAAGUUUGGACUGGGCAGAGCUCAACACAGCGUGGCAAAGUGGCUGUGGCUAGACUGCCCCUCUGGAUUCCUCGUCACUCAGGAGGGCAUCUCUGAGAGAAAUGCC,0.81
